# Measurements reported in paper PMC4336329 (PLoS ONE, 2015).
# In all, about 310,000 compounds went through this assay and about 2,200 (0.71%) showed an effect of 50% or more. Effects have a minus sign here. The list shows a part of the results.
# Target: human ether-à-go-go-related gene (hERG) potassium channel (human, UniProt Q12809)
# Assay: primary screen, population patch clamp on CHO cells stably expressing hERG
# Sequence of human ether-à-go-go-related gene (hERG) potassium channel (Q12809 whole entry, looked up): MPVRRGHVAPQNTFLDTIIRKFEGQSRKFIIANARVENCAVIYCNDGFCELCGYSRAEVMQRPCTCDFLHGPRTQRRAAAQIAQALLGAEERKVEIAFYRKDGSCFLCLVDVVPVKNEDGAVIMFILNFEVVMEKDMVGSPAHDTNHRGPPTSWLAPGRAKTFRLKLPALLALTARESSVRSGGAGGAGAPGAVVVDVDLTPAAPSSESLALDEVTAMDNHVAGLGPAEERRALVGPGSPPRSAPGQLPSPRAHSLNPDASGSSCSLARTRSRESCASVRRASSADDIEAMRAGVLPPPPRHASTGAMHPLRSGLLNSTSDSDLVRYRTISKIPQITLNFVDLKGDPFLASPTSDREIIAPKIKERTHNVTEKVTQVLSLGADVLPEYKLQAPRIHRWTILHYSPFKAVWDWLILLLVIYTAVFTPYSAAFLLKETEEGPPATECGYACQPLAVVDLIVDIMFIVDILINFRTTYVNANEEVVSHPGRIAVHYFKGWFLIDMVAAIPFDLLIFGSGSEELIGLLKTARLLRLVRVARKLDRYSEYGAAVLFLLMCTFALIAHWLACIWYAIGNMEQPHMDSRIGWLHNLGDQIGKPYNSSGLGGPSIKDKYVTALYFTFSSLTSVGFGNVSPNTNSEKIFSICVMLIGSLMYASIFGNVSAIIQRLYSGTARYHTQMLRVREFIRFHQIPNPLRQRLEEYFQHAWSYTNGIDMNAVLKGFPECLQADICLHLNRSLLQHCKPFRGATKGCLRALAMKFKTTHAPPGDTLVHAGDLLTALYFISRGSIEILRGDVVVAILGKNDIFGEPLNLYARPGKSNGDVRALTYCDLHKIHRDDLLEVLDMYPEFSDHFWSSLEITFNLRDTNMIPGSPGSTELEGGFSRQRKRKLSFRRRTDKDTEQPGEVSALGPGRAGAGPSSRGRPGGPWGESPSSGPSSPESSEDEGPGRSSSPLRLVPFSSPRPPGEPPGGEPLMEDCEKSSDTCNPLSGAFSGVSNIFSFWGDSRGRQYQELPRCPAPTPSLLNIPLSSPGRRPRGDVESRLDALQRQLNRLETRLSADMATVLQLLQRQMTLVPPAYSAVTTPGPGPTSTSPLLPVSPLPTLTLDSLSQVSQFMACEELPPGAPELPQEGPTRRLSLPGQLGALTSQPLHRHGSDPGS
row,Compound,"hERG current change (%, negative = inhibition) at 1uM"
1,CC(=O)OC(C(=O)NCc1ccco1)c1ccncc1 (stereo not drawn),5.93%
2,CC(C)c1ccc(NC(=O)CCNS(=O)(=O)c2cccc3nonc23)cc1,4.01%
3,CCn1c(N)[n+](CC(=O)Nc2ccc(SC(F)F)cc2)c2ccccc21.[Cl-],-63.1%
4,CCc1nnc(NC(=O)[C@@H](NC(=O)c2cccc(C)c2)C(C)C)s1,10.5%
5,N#CC1(NC(=O)Cn2cc(C(F)(F)F)ccc2=O)CCCC1,-1.17%
6,COc1cc(C(=S)N2CCOCC2)cc(OC)c1OS(=O)(=O)c1ccc(C)cc1,10.9%
7,Nc1ccc2nc3c(c(Cl)c2c1)CCCC3,0.0347%
8,O=C(CSCCO)Nc1ccc([N+](=O)[O-])cc1,3.82%
9,CCn1nnnc1-c1ccc(OC)c(S(=O)(=O)NCc2ccccc2)c1,5.34%
10,CSCCC1NC(=O)N(CC(=O)Nc2ccc(-c3ccccc3)cc2)C1=O (stereo not drawn),2.01%
11,COc1ccc(/C=C/c2ccncc2)cc1OC,5.16%
12,CCOc1cccc(-c2c(C(=O)N/N=C/c3ccc(C)s3)nnn2-c2nonc2N)c1,16.6%
13,Cc1onc(C(=O)Nc2sc3c(c2C#N)CCCC3)c1[N+](=O)[O-],10.8%
14,COc1ccc(-c2cc(C(F)(F)F)n3nc(C(=O)NCc4ccco4)c(Cl)c3n2)cc1,13.1%
15,Cn1c(=O)c2ncn(CC(=O)O)c2n(C)c1=O,15.4%
16,CCCCn1c(N)c(N(CC(C)C)C(=O)c2cccc(S(=O)(=O)N3CC(C)OC(C)C3)c2)c(=O)[nH]c1=O (stereo not drawn),18%
17,Cc1ccc(CN2CCC(n3nccc3NC(=O)CCOc3ccccc3)CC2)o1,3.11%
18,CCn1cc(C(=O)NCCN(CC(C)C)CC(C)C)c(=O)c2cc(S(=O)(=O)N3CCOCC3)ccc21,2.38%
19,CCOc1c(/C=C(\C#N)C(N)=O)c2ccccc2n1CC,7.72%
20,COCc1cc(C)nc2sc(C(=O)Nc3ccc(OC)cc3)c(N)c12,11.7%
21,O=C1Nc2ccc(Br)cc2C1=Nc1cccnc1,1.49%
22,COc1ccc(CNCc2ccccc2C(F)(F)F)cc1.O=C(O)C(=O)O,11.1%
23,CCC(C)NCCOCCOc1ccc(Cl)cc1Br.O=C(O)C(=O)O (stereo not drawn),3.42%

row,Compound,"hERG current change (%, negative = inhibition) at 1uM"
1,CCCCCCCC(=O)N/N=C(\C)c1cccnc1,0.0128%
2,NS(=O)(=O)c1ccc(NC(=O)COC(=O)COc2ccc(Cl)cc2)cc1,9.38%
3,COc1ccccc1N1CCN(C(c2cccs2)C(C)NC(=O)C(=O)N2CCCCC2)CC1 (stereo not drawn),1.31%
4,COc1ccc(C(=O)/C=C/c2ccsc2)cc1CSCC(=O)O,13.4%
5,COc1ccc(CN2CCNC(=O)C2CC(=O)N(C)CCCN2CCOCC2)cc1C (stereo not drawn),23.3%
6,CCC(C)NS(=O)(=O)c1cccs1 (stereo not drawn),11.4%
7,COc1ccc(S(=O)(=O)N2CCC(NC(=O)c3cccnc3)CC2)cc1,-18.5%
8,Cc1ccc(/C=N/NC(=O)Cn2cnc3ccccc32)cc1,20%
9,COCCNC(=O)[C@H]1N2C(=O)c3c(ccc(OC)c3OC)C2SC1(C)C (stereo partly drawn),10.4%
10,O=C(NCCc1ccccc1)C1CC(=O)N(CCc2ccccc2)C1 (stereo not drawn),20.4%
11,Cc1ccc(NC(=O)c2c(C(=O)Nc3ccccc3)sc3nc(C)cc(=O)n23)cc1,19.2%
12,Cc1cc(C)nc(SCNC(=O)c2ccc(F)cc2)n1,8.24%
13,CC(CCc1ccccc1)NS(=O)(=O)c1ccccc1Cl (stereo not drawn),6%
14,Cc1ccc2c(C)c(C(=O)Nc3c(C)n(C)n(-c4ccccc4)c3=O)oc2c1C,1.47%
15,COc1ccc(N2C(=O)c3cccc4cccc(c34)C2=O)nn1,-0.519%
16,CC1CN(C(=O)COC(=O)[C@@H]2CC(O)CN2S(=O)(=O)c2ccc3c(c2)OCCO3)CC(C)O1 (stereo partly drawn),4.78%
17,CCOC(=O)N1CCN(CCCc2ccccc2)CC1,5.69%
18,O=C(O)CCCC(=O)Nc1ccc(Br)cc1C(=O)O,6.35%
19,Cc1cc(C(F)F)nn1CC(=O)N1CCSCC1,-0.544%
20,COc1ccc(/C=C/C(=O)NC(=S)Nc2ccc(S(=O)(=O)Nc3ccc(OC)nn3)cc2)cc1,11.8%
21,Cc1cccc2[nH]c3c(N4CCC5(CC4)OCCO5)ncnc3c12,4.29%
22,CC(C)(C)c1cc2nc(N)nc(N)n2n1,11.2%
23,COc1ccc(C(C)NC(=O)C23CC4CC(CC(C4)C2)C3)cc1 (stereo not drawn),17.4%

row,Compound,"hERG current change (%, negative = inhibition) at 1uM"
1,Cn1cc(Cl)c(C(=O)Nc2nc3ccccc3s2)n1,2.83%
2,c1ccc(Oc2nc(Oc3ccccc3)nc(N3CCOCC3)n2)cc1,7.06%
3,COCCNC(=O)C(OC(=O)c1ccco1)c1ccccc1F (stereo not drawn),9.12%
4,COC(=O)c1cc2sccc2n1Cc1nc(-c2ccc(Cl)cc2)oc1C,14.4%
5,COc1ccc(-c2csc(-c3cc4ccccc4oc3=N)n2)cc1,0.392%
6,Cl.N=c1c[n+](N2CCOCC2)[n-]o1,16.5%
7,O=C(NCCc1ccc(Cl)cc1Cl)c1ccc2nc[nH]c2c1,16.8%
8,Cc1cc(C)n(-c2c(F)c(F)c(CN3CCOCC3)c(F)c2F)n1,11%
9,COCCN(Cc1ccccc1)C(=O)C1CCN(S(=O)(=O)c2ccc3c(c2)OCCO3)CC1,2.69%
10,CC(=Nc1c(C)n(C)n(-c2ccccc2)c1=O)c1c(O)n(Cc2ccccc2)c(=O)[nH]c1=O,18.8%
11,O=S1(=O)CCC(N=Cc2cc(Br)ccc2O)C1 (stereo not drawn),-1.7%
12,CCC(=O)Nc1ccccc1C(=O)N1CCOCC1,16.3%
13,Cc1ccc(NC(=O)CSc2nnc(Cc3ccccc3)o2)c(C)c1,8.91%
14,COc1ccc(OC)c(CC(=O)Nc2ccc3c(c2)CCC3)c1,15%
15,Oc1c(C(Nc2cccc(C(F)(F)F)c2)c2ccncc2)ccc2cccnc12 (stereo not drawn),11.8%
16,CCOCCCNc1nc2nc3ccc(C)cn3c(=O)c2cc1C(=O)NCC1CCCO1 (stereo not drawn),-76%
17,CCn1nnnc1NCc1ccc(Cl)cc1,12%
18,CCCn1c(SCC(=O)NCc2ccc3c(c2)OCO3)n[nH]c1=O,1.82%
19,Cc1cc(C)n(C(=O)CNC(=O)/C=C/c2ccccc2)n1,5.83%
20,CCC(C)N(C)C1CCN(C(=S)Nc2ccc(OC)cc2)CC1 (stereo not drawn),3.89%
21,CCc1cc(=O)oc2cc(OCC(=O)NCCN3CCOCC3)c(Cl)cc12,10.5%
22,Cc1c(C(=O)OCC(=O)N2CCCC2=O)oc2ccccc12,15.7%
23,CCN(CC)c1ccc(NC(=O)c2cccnc2)cc1,7.65%

row,Compound,"hERG current change (%, negative = inhibition) at 1uM"
1,O=C(NCc1ccccc1)c1ccc2c(c1)C(=O)N(Cc1ccncc1)C2=O,-7.46%
2,CCCCn1c(N)c(N(CCC(C)C)C(=O)COC(=O)c2cccnc2Cl)c(=O)[nH]c1=O,8.18%
3,CCN(CC)CCNC(=O)CCc1c(C)nc2c(c(C)nn2-c2ccc(C)cc2)c1C,1.45%
4,COc1ccc(N2C(=O)[C@@H]3[C@H](C2=O)[C@H]2C=CC=NN2[C@@H]3C(=O)Nc2ccc(Cl)cc2)cc1,0.474%
5,COc1ccccc1-c1nc(-c2ccc(Br)o2)no1,14.9%
6,COc1ccc(CCNC(=O)CSc2nnc(CNc3ccc(Cl)cc3)o2)cc1OC,-3.87%
7,O=C1c2ccccc2NC(c2ccccc2O)N1c1ccc(F)cc1 (stereo not drawn),8.4%
8,COc1ccc(/C=C/C(=O)c2ccc([N+](=O)[O-])o2)cc1OC,13.1%
9,Cn1c(=O)c(C(=O)NNC(=O)c2ccccc2Cl)c(O)c2ccccc21,10.3%
10,CCCC1NC(=S)N(C2CCCCC2)C1=O (stereo not drawn),10.8%
11,CC(C)Oc1ccccc1C1(c2ccccc2)NC(=O)NC1=O (stereo not drawn),14.5%
12,Cc1ccc2c(c1)NC(=O)C(CC(=O)NCCCN1CCCCC1C)O2 (stereo not drawn),2.12%
13,Cc1ncc(CO)c(/C=N/NC(=O)c2cccc(S(=O)(=O)N3CCCC3)c2)c1O,11.3%
14,N/C(=N\OC(=O)/C=C/c1ccccc1)c1ccccc1,10.4%
15,COc1ccc(CNC(=O)Cn2nc([N+](=O)[O-])c(Br)c2C)cc1,1.36%
16,CCOC(=O)C1=C(CNCCc2ccc(Cl)cc2)NC(=O)NC1c1ccc2c(c1)OCO2 (stereo not drawn),3.23%
17,CCOC(=O)c1ccc(NS(=O)(=O)c2c(C)n[nH]c2C)cc1,5.61%
18,COc1cc(OC)c2c(-c3ccccc3)cc(=O)oc2c1C(CC(=O)N1CCCC1)c1ccc2c(c1)OCO2 (stereo not drawn),14.6%
19,O=C1C2C3C=CC(C3)C2C(=O)N1Nc1c(Cl)cc(Cl)cc1Cl (stereo not drawn),8.13%
20,COc1cc(/C=C/C(=O)OCC(=O)NC(=O)NC23CC4CC(CC(C4)C2)C3)ccc1OCC#N,14.4%
21,COc1ccc(CCNC(=O)C2CCCN(S(=O)(=O)c3cnc[nH]3)C2)cc1OC (stereo not drawn),9.59%
